Source: US20260216133A1, “AEROSOL COMPRISING 5-METHOXY-N,N-DIMETHYLTRYPTAMINE” (GH Research Ireland Limited, priority 2020, published 2026)

System: patients with treatment-resistant major depressive disorder (TRD)
Assay: Clinical trial, single inhalation of 5-MeO-DMT aerosol
[1] = single dose 12 mg, single inhalation, two patients

COc1ccc2[nH]cc(CCN(C)C)c2c1 [5-MeO-DMT, 5-methoxy-N,N-dimethyltryptamine]
Montgomery-Asberg Depression Rating Scale (MADRS) score, formal remission (both patients, 2 hours after 12 mg single inhalation): ≤ 10 | depressive symptoms (MADRS) at follow-up (both patients, day 1 and day 7 follow-up visits): effect further deepening | systemic absorption from aerosol particles (inhalation, evidenced by onset of psychedelic effects): rapidly systemically absorbed | duration of the psychedelic experience as judged by an external observer (patient 1, 12 mg single inhalation): 16 min | duration of the psychedelic experience as judged by an external observer (patient 2, 12 mg single inhalation): 40 min | peak psychedelic experience, 30-item revised Mystical Experience Questionnaire (MEQ30) [1]: both patients achieving a peak psychedelic experience | tolerability of inhalation procedure [1]: well tolerated with no inhalation-related adverse events, especially no coughing
